# Source: paper PMC6919601, “Identification of Plasmodium dipeptidyl aminopeptidase allosteric inhibitors by high throughput screening” (PLoS ONE, 2019)
# Among all 110,000 compounds or so, about 230 (0.21%) showed an effect of 50% or more. The list shows a part of the results.
# Target: DPAP1 (Plasmodium falciparum, UniProt Q8IIJ9)
# Experiment: primary screen, percent inhibition; read by cleavage of a fluorogenic dipeptide substrate; higher = more effect of the substance
# Parameters: species or system P. falciparum D10 trophozoite lysates; single well
# 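Note: 30 min substrate incubation versus DMSO and 10 µM JCP410 controls.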
# DPAP1, sequence (Q8IIJ9 whole entry, looked up): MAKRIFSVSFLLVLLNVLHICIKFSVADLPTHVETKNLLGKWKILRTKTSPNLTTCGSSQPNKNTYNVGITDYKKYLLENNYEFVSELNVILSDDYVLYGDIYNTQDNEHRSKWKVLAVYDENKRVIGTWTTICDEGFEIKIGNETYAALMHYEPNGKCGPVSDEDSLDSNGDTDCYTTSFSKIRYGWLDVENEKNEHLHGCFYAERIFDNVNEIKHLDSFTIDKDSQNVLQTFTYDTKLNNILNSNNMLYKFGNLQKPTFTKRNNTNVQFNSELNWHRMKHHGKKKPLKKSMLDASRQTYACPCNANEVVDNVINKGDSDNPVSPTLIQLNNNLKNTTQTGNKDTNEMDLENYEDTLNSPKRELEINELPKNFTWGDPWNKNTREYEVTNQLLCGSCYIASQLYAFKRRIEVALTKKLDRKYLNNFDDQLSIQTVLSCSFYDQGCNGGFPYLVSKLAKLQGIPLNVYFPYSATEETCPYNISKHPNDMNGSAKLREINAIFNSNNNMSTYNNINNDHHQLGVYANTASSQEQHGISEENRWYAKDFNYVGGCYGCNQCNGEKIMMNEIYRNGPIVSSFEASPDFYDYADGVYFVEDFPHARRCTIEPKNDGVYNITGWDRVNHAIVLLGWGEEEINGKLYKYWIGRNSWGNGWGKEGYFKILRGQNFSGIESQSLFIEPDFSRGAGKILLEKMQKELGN
row,Structure (SMILES),% Inhibition @ 10 uM [%]
1,O=C(c1ccco1)N1c2ccccc2Sc2ccccc21,-4.52
2,COc1cccc(C(=O)Nc2ccc(S(=O)(=O)NCCc3ccccc3)cc2)c1,-2.67
3,COCCNC(=O)Cn1nc(-c2ccc(Cl)cc2)ccc1=O,-3.58
4,CCCNC(=O)C1CC(c2cc(OC)c(OC)c(OC)c2)=NO1 (stereo not shown),-5.79
5,COc1ccc(NC(=O)c2ccccc2C)cc1,-7.3
6,COc1cc2c(cc1OC)C1N(CC2)C(C(=O)c2cccs2)=NN1c1ccccc1 (stereo not shown),4.11
7,Cc1ccc(C)c(NC(=O)c2cnn(-c3ccccc3)c2C)c1,-1.63
8,O=C(NCc1ccccc1)C1CC1(c1ccccc1)c1ccccc1 (stereo not shown),2.55
9,Brc1ccc(N2N=C(c3cccs3)CC2c2ccco2)cc1 (stereo not shown),0.827
10,COc1ccccc1C1(CCNC(=O)c2ccccc2C(=O)O)CCOC(C)(C)C1 (stereo not shown),-0.85
11,CCN1C(=O)C2(C(C#N)=C(N)OC3=C2C(=O)CC(C)(C)C3)c2ccccc21 (stereo not shown),7.2
12,Cc1cc(=O)n2nc(N3CCC(C(=O)NCC(C)c4ccccc4)CC3)sc2n1 (stereo not shown),-0.281
13,COCCN1C(=O)c2ccccc2C(C(=O)N2CCC(c3ccccc3)C2)C1c1cccs1 (stereo not shown),1.97
14,OC[C@H]1O[C@@H](n2c(Br)nc3c(O)ncnc32)[C@H](O)[C@@H]1O,-2.35
15,NC(=O)c1ccccc1C(=O)Nc1cccc2ccccc12,0.716
16,CC(C)(C)OC(=O)Nc1ccncc1C(=O)c1ccccc1,-7.01
17,Cc1ccc(C(=O)N2CCN(c3ccc(NC(=O)c4ccco4)cc3)CC2)cc1,3.69
18,CCn1c(C(=O)O)c(CNCCc2ccc(OC)c(OC)c2OC)c2ccc(OC)cc21,1.8
19,O=C(O)CC(NS(=O)(=O)c1ccc([N+](=O)[O-])cc1)c1ccccc1 (stereo not shown),-0.0372
20,CC(NC(=O)c1c(O)nc2c(c1O)CCCC2)c1ccccc1 (stereo not shown),-0.458
21,CCC(C(=O)Nc1ccc(Cl)cc1)N1CCCC1=O (stereo not shown),1.19
22,CCOc1ccc(-c2cc3cccc(OC)c3oc2=O)cc1,4.61
23,O=C(O)C12CC3CC(C1)CC(n1ncc(NCc4ccc5c(c4)OCO5)c(Cl)c1=O)(C3)C2,-0.486
24,CCOc1cccc2c1OC(c1ccc(C(=O)OC)cc1)N1N=C(c3ccc(C)o3)CC21 (stereo not shown),30.6
25,CCC(C)Nc1nc2c(S(=O)(=O)c3ccccc3)nnn2c2ccsc12 (stereo not shown),-1.01
26,COc1ccc2occ(CC(=O)Nc3nnc(C(C)C)s3)c2c1,0.401

row,Structure (SMILES),% Inhibition @ 10 uM [%]
1,O=C(c1ccccc1)c1ccc2nc(NCc3ccccc3Cl)c3nncn3c2c1,-0.341
2,CCN1CCCC1CNC(=O)CS(=O)Cc1nc(-c2ccc(OC)c(OC)c2)oc1C (stereo not shown),-8.65
3,COc1cc2nc(Cl)n(C)c2cc1OC,-4.11
4,Cn1nc(C(=O)N(CCCN2CCOCC2)Cc2ccco2)c2c1-c1ccccc1OC2,-1.72
5,Clc1ccc(-n2nnc(-c3ccccc3)n2)cc1Cl,1.67
6,O=C(O)[C@@H](c1ccccc1)N1C(=O)c2ccccc2C1=O,2.39
7,COc1ccc(C(=O)Nc2ccc(C(C)C)cc2)cc1Cl,3.17
8,COc1ccccc1C1CN(c2ccc(F)cc2F)N=C1c1cccs1 (stereo not shown),6.49
9,CS(=O)(=O)N(CC(=O)Nc1ccc(Cl)cc1Cl)Cc1ccccc1,-3.78
10,Cc1nc(O)c2c(n1)OC(N)=C(C#N)C2c1cccnc1 (stereo not shown),1.26
11,CC(C)=CCC/C(C)=C\CC(C)(C)/C=N/O,-0.771
12,CCc1cccc(C)c1NC(=O)c1cc(OC)cc(OC)c1,15.2
13,Cc1ccc2oc(=O)c3cnn(CC(=O)Nc4cc(-c5ccccc5)[nH]n4)c3c2c1,-5.25
14,Cn1nc(C(=O)NC(c2ccccc2)c2ccccc2)c2ccccc2c1=O,-4.49
15,COc1ccc(CCNC(=O)CCCCn2c(=O)[nH]c3ccsc3c2=O)cc1OC,-4.06
16,Cc1cc(O)nc(N2CCOCC2)n1,1.91
17,CCOC(=O)c1cc2cccc(OC)c2oc1=O,1.31
18,CCCc1cc(C(=O)N2CCN(C(c3ccccc3)c3ccccc3)CC2)no1,-3.77
19,COc1ccc(-c2cc(-c3ccccc3)nc(N3CCOCC3)n2)cc1OC,-2.6
20,CC(C)(C)C(=O)NCCSc1nnnn1-c1ccccc1,-2.85
21,CCCCCC(C)NC(=O)c1ccco1 (stereo not shown),-6.06
22,CC(=O)N1c2ccccc2C(C)CC12CCCCC2 (stereo not shown),-4.32
23,CCn1ccc(C(=O)Nc2ccccc2Sc2ccccc2)n1,0.5
24,Clc1ccccc1-c1nc2c3cnn(Cc4ccccc4)c3ncn2n1,0.569
25,CCCn1c(=O)c2sccc2n2c(CCCC(=O)N3CCCC3)nnc12,-0.212
26,COc1ccccc1NC(=O)c1ccc(COc2ccccc2OC)cc1,-1.28

row,Structure (SMILES),% Inhibition @ 10 uM [%]
1,Cc1cc(C)c2c(-n3cccc3)c(C(=O)NCc3cccnc3)sc2n1,0.623
2,CC1(C)CC2CC(C)(CN2C(=O)C2CC(c3ccc(F)cc3)=NO2)C1 (stereo not shown),1.03
3,CCOC(=O)c1c(NC(=O)Cc2ccccc2)sc(C(=O)NC2CCCC2)c1C,0.565
4,C=CCn1c(=O)c(C(=O)Nc2nc3ccc(Br)cc3s2)c(O)c2ccccc21,-7.9
5,O=C(CSc1nc(O)c2ccccc2n1)c1ccc(O)c(O)c1,3.05
6,COc1ccc(CNc2nc(-c3cccnc3)nn2C(=O)Cc2ccccc2)cc1,-4.75
7,CCOc1ccc(NS(=O)(=O)Cc2ccccc2)cc1,6.5
8,CCn1c(C)nc2cc(C(=O)O)c(C(=O)O)cc21,-1.06
9,Cc1ccc2c(=O)cc(C(=O)Nc3nc4ccc(S(C)(=O)=O)cc4s3)oc2c1C,-1.47
10,CCCCNC(=O)CCc1nc(-c2cccc(C)c2)no1,-0.45
11,CCCc1c(C(=O)OCC)[nH]c2c1C(=O)CCC2,4.63
12,COc1ccc(C(=O)CSc2nc(-c3ccco3)nc3c2c(=O)n(C)c(=O)n3C)cc1,2.34
13,CC(=O)c1cccc(NS(=O)(=O)c2cccc(C(=O)Nc3ccccc3C(=O)O)c2)c1,-0.622
14,C#CCN(CC(=O)C(C)(C)C)C(C)(C)C,-1.5
15,Cn1cccc1/C=C1\CCc2ccccc2C1=O,1.07
16,S=c1sc2ccccc2n1CN1CCOCC1,13.1
17,Cc1ccc(/C=C2\CC(NCc3ccccc3)C(=O)O2)o1 (stereo not shown),-2.41
18,O=C(Nc1nc(-c2ccc(Cl)cc2Cl)cs1)C1CCCO1 (stereo not shown),0.408
19,CCCC(O)(c1ccc(Cl)cc1)C(CN1CCOCC1)c1ccccc1 (stereo not shown),-2.38
20,COc1ccc(C(=O)Cn2c(-c3ccc(OC)cc3)c(-c3ccc(OC)cc3)oc2=O)cc1,14.5
21,Cc1nc2nc(CN)nn2c(C)c1CCC(=O)NCc1ccccc1Cl,-0.447
22,O=C(NCc1ccccn1)/C(=C/c1ccccc1Cl)c1ccccc1,-3.14
23,CCOc1ccc(-c2cc(OC)nc(N)n2)cc1,1.96
24,COc1ccc2c(c1OC)C(=O)N(c1ccc(NC(C)=O)cc1)C2=O,5.09
25,c1ccc(-n2nnnc2CSc2nc[nH]n2)cc1,-2.85
26,Clc1cccc(N2CCN(CC3CC=CCC3)CC2)c1 (stereo not shown),4.51

row,Structure (SMILES),% Inhibition @ 10 uM [%]
1,O=C(Nc1ccc(Cl)cn1)c1cccc(OCc2ccccc2)c1,15.9
2,CC1(C)CCCC(CO)=C1CSc1ccccc1,-2.8
3,CCn1c(SCC(=O)Nc2ccccc2OC)nc2c1c(=O)n(C)c(=O)n2C,-7.4
4,O=C(c1ccc(Cl)c([N+](=O)[O-])c1)N1CCCC1,-0.0217
5,Oc1ccccc1C1=NN2C(C1)c1ccccc1OC21CCCC1 (stereo not shown),-5.36
6,CCCC(=O)C1=C(NC)CC(c2ccccc2)CC1=O (stereo not shown),-2.88
7,Cc1ccnc2nc(NC(=O)c3ccc(C(C)(C)C)cc3)nn12,-4.91
8,O=c1c(O)c(Cl)cnn1-c1ccccc1,3.85
9,CC(C)CC(C(=O)NC(C)c1ccccc1)N1C(=O)c2ccccc2C1=O (stereo not shown),4.01
10,CCN(CC)S(=O)(=O)c1ccc(NC(=O)c2ccc(C)cc2)cc1,-3.11
11,CCCNC(=O)CS(=O)Cc1nc(-c2cccc(C)c2)oc1C (stereo not shown),-1.05
12,Nc1n[nH]c(SCC(=O)Nc2cccc(-c3nc4ccccc4s3)c2)n1,-0.622
13,CCN1CCN(CCCSC)CC1,-4.98
14,COc1cccc(C2C3=C(O)CC(C)(C)CC3=Nc3nc(-c4cccc(Cl)c4)nn32)c1OC (stereo not shown),0.275
15,Cc1ccc(Nc2cc(O)nc(O)n2)cc1,-4.75
16,CC1(C)CC(=O)C2=C(C1)N(c1c(F)cccc1F)C(N)=C(C#N)C2c1cccnc1 (stereo not shown),-2.68
17,CCOC(=O)c1cc(-c2ccc(F)cc2)n(CCC(=O)NC(C)CC)c1C (stereo not shown),1.47
18,COc1cccc(-c2cn3c(n2)sc2cc(C(=O)NC(C)C)ccc23)c1,1.64
19,O=C(O)c1ccc(Oc2ccc([N+](=O)[O-])cc2)cc1C(=O)O,-0.128
20,COc1ccc(NC(=O)/C(=C/c2ccc3c(c2)OCO3)NC(=O)c2ccc(OC)cc2)cc1,-6.36
21,CCOc1cc(Cl)c(C(C)NC(=O)c2ccccc2)cc1OCC (stereo not shown),6.92
22,CCC(c1nc2ccccc2n1C)C(O)c1ccccc1 (stereo not shown),5.16
23,CCC(=O)Nc1nc(-c2ccccc2)ns1,-6.55
24,O=C(O)CCCC(=O)Nc1cc(C(F)(F)F)ccc1Cl,-2.63
25,CCOc1ccc(C2SC(NC(C)=O)=NN2C(C)=O)cc1 (stereo not shown),2.25
